Reference: the GPR68 mutational scans of Howard et al. (2025)
Scores whose standard error is large were omitted. Not listed are two conditions whose scores span a narrow range. Read del as a deletion of the residues named and ins as an insertion between two positions. For some of these results: The data file names ogerin without a concentration.

B1: GPR68, Q15743 (parent)
chain: MGNITADNSSMSCTIDHTIHQTLAPVVYVTVLVVGFPANCLSLYFGYLQIKARNELGVYLCNLTVADLFYICSLPFWLQYVLQHDNWSHGDLSCQVCGILLYENIYISVGFLCCISVDRYLAVAHPFRFHQFRTLKAAVGVSVVIWAKELLTSIYFLMHEEVIEDENQHRVCFEHYPIQAWQRAINYYRFLVGFLFPICLLLASYQGILRAVRRSHGTQKSRKDQIQRLVLSTVVIFLACFLPYHVLLLVRSVWEASCDFAKGVFNAYHFSLLLTSFNCVADPVLYCFVSETTHRDLARLRGACLAFLTCSRTGRAREAYPLGAPEASGKSGAQGEEPELLTKLHPAFQTPNSPGSGGFPTGRLA

Experiments:
[1] = variants of: B1; experiment: cAMP reporter score (Enrich2 score, wild type = 0); higher = more signal; HEK293T, FACS bins
[2] = variants of: B1; experiment: surface expression score (Enrich2 score, wild type = 0); higher = more signal; HEK293T, FACS bins

Variant	cAMP reporter score ([1]; pH 5.5)	cAMP reporter score ([1]; pH 6)	cAMP reporter score ([1]; pH 6, modulator: ogerin)	cAMP reporter score ([1]; pH 6.5, modulator: ogerin)	surface expression score [2]
H159_E160insG	0.293	0.318	-0.274	-0.389	0.59
H159_E161del	-1.6	-1.29	-1.89	-1.52	0.392
E160_E161del	-1.65	-0.481	-1.3	-1.1	1.87
E160_E161insGS	-0.801	0.071	-0.899	0.105	-0.141
E160_E161insGSG	-1.27	-1.73	-1.41	-1.44	-0.352
E161_I163del	-0.587	-0.801	-1.65	-0.565	2.51
E161_V162del	-1.25	-0.516	-0.536	-0.673	2.24
E161_V162insG	0.478	-0.183	-0.106	-0.493	1.87
E161_V162insGSG	-0.734	–	-1.71	-1.05	0.181
V162A	-0.732	–	-0.922	-1.82	0.318
V162C	-1.62	-0.776	-2.25	-1.19	-1.21
V162D	-0.679	–	–	-0.339	-0.192
V162E	-1.56	-0.735	-1.86	-1.15	-0.505
V162F	-0.93	-0.24	-1.39	-0.973	1.25
V162G	-0.807	-0.674	-0.655	-0.419	1.13
V162H	-0.393	-1.51	-1.34	-0.866	0.936
V162I	0.553	0.331	0.404	-0.145	0.451
V162K	-1.68	–	-1.15	-1.03	1.03
V162L	0.905	0.793	1.79	0.826	0.821
V162M	-0.526	-0.355	-0.658	-0.569	-0.168
V162N	-0.724	-1.07	-0.586	-1.15	1.58

Variant	cAMP reporter score ([1]; pH 5.5)	cAMP reporter score ([1]; pH 6)	cAMP reporter score ([1]; pH 6, modulator: ogerin)	cAMP reporter score ([1]; pH 6.5, modulator: ogerin)	surface expression score [2]
V162P	-1.06	-0.549	-0.725	-0.658	0.705
V162Q	-1.3	-0.913	-1.77	-1.32	0.464
V162R	-1.45	-0.315	-1.19	-0.837	1.41
V162S	-1.4	-0.798	-1.46	-1.02	0.367
V162T	0.235	-1.73	-0.547	-1.13	0.941
V162W	-1.81	-1.36	-1.4	-0.625	1.15
V162Y	-1.82	–	-1.38	-0.44	0.624
V162_E164del	-1.18	-0.388	-1.2	-1.42	2.55
V162_I163del	-0.491	-1.28	-1.17	-0.862	0.916
V162_I163insGS	-1.51	-0.702	-1.1	-1.46	-0.094
V162del	-1.65	–	-1.02	-1.45	1.39
I163C	-0.226	-0.589	-0.472	-0.849	-0.656
I163D	-0.406	-0.068	-1.08	–	0.512
I163E	-0.11	-0.812	-0.178	0.804	-0.701
I163F	0.103	2.61	0.428	0.601	2.44
I163G	-0.648	-0.935	-0.383	-1.58	-0.073
I163H	0.236	–	0.5	2.22	-0.115
I163K	0.284	-0.727	0.932	0.411	1.44
I163L	0.829	-0.153	0.998	0.869	0.318
I163M	-0.849	0.064	-0.413	-0.079	-0.094
I163N	-0.23	-0.039	-0.133	-0.473	0.132

Variant	cAMP reporter score ([1]; pH 5.5)	cAMP reporter score ([1]; pH 6)	cAMP reporter score ([1]; pH 6, modulator: ogerin)	cAMP reporter score ([1]; pH 6.5, modulator: ogerin)	surface expression score [2]
I163P	-1.01	0.063	-0.336	-0.253	0.698
I163Q	-0.031	0.402	-0.06	0.233	-1.09
I163R	-0.61	0.308	0.316	-0.101	0.513
I163S	0.343	–	1.44	2.21	0.604
I163T	0.448	–	1.62	3.56	0.868
I163V	1.21	1.73	1.35	2.99	0.609
I163W	1	3.19	1.34	3.67	-0.333
I163Y	-0.112	–	0.789	–	-0.417
I163_E164del	-0.979	-0.907	-0.701	-0.984	2.07
I163_E164insG	-0.497	-1.19	0.323	-0.763	0.312
I163_E164insGS	0.262	–	-1.16	-0.817	0.88
I163del	-1.22	-0.64	-0.916	-1.06	1.62
E164_D165del	-1.03	-0.587	-1.64	-1.46	0.87
E164_D165insGS	-1.53	-0.289	-0.824	-0.819	0.637
E164_D165insGSG	-1.69	0.027	-2.16	-1.36	0.067
E164del	-0.444	-1.29	-0.776	-1.2	0.857
D165A	0.081	-0.529	-0.246	-0.464	1.7
D165C	-1.47	–	1.69	–	–
D165E	-0.761	-0.651	-0.542	-0.784	1.51
D165F	-0.56	-0.512	-0.956	-1.42	0.545
D165G	-0.141	-0.358	-0.323	-0.766	2.06
